Hit rate of the full screen: of about 280,000 compounds, about 100 (0.036%) were called active. Inconclusive means that the source gave no clear call. Such entries were picked first, then a sample of the others. The call rests on the fitted dose curve; in most records, active means well fitted inhibition curve with a large enough effect in the signal ratio, with a control signal flat (not every such curve was filed as active); inconclusive means small, poorly fitted or top-dose-only effect, or effect the other way, or a change in a side signal; inactive means no such curve, though single readings can be large or run the other way; the % refers to the signal ratio. Where the call is inconclusive, the potency comes from a doubtful curve fit. A note “side channel” means that the fit belongs to a control or component signal, not to the main read-out.
Target: Muscleblind-like protein 1 (Homo sapiens) (UniProt Q9NR56)
Test: qHTS Assay for Inhibitors of MBNL1-poly(CUG) RNA binding
Settings: TR-FRET MBNL1-His/biotin-(CUG)12 binding, 665/545 ratio; activity change, negative = inhibition: at 57.5 µM (top of the series)
How it was run: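 TR-FRET between His-tagged MBNL1 and biotin-(CUG)12 RNA, detected with Tb anti-His antibody (0.055 ng/ul) and streptavidin-XL665 (5 nM), 60 min at room temperature. Compounds titrated 92 nM to 58 uM; 665/545 nm ratio normalized to buffer and complex controls.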
On the % scale 0 is the no-effect control and ±100 the full control effect; potency means the concentration at half of the fitted maximal effect; tags describe the fitted curve by direction and shape or compound fluorescence and quenching.

Chain of UniProt Q9NR56 (Q9NR56 whole entry, looked up): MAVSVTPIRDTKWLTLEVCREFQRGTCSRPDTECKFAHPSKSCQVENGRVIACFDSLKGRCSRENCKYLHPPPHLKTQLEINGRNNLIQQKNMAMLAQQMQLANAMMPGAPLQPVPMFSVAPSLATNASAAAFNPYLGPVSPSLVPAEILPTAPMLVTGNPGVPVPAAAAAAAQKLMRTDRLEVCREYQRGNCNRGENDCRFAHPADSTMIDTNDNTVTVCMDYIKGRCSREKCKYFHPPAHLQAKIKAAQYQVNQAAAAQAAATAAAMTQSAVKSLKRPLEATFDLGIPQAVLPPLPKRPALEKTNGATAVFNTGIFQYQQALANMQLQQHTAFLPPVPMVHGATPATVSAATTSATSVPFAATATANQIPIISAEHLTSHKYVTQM

Row | Structure (SMILES) | Potency | activity change, negative = inhibition
1 | Cc1ccc(-c2cc(C(F)(F)F)c(C#N)c(SCC(=O)O)n2)cc1 | inconclusive: 39.8 µM [quencher, single point] | –
2 | O=C(NN1C(=O)/C(=C/c2cccs2)SC1=S)c1ccncc1 | inconclusive: 20 µM [quencher, side channel, partial curve] | –
3 | N=c1c(C(=O)NCCN2CCOCC2)cc2c(=O)n3ccccc3nc2n1CCCN1CCOCC1 | inconclusive: 2.82 µM [quencher, side channel, full curve] | –
4 | Cc1ccc(N2C(=O)c3cccc4cccc(c34)C2=O)cc1 | inconclusive: 7.94 µM [inhibitor, single point] | –
5 | Cn1cnnc1Sc1ccc(/C=C/C(=O)c2ccc(O)cc2)cc1[N+](=O)[O-] | inconclusive: 14.1 µM [quencher, side channel, partial curve] | –
6 | CCOC(=O)N1CCC(Nc2ncnc3c2cnn3-c2ccc(C)cc2C)CC1 | inconclusive: 3.55 µM [quencher, side channel, full curve] | –
7 | CCOC(=O)COn1c(=O)c(-c2ccc(OC)c(OC)c2)[n+]([O-])c2ccccc21 | inconclusive: 11.2 µM [quencher, side channel, partial curve] | –
8 | OC(c1ccccc1)(c1ccccc1)C1CCN(C(=S)NCCc2ccccc2)CC1 | – | inactive: 3.26%
9 | C=CCn1c(-c2ccccc2)c[nH]c1=S | – | inactive: 0.761%
10 | Cc1cccc(C)c1NC(=O)c1ccc(-c2ccc(Cl)cc2Cl)o1 | – | inactive: 4.96%
11 | N#Cc1ccc(-c2cccnc2)nc1SCC(=O)c1ccccc1 | inconclusive: 15.8 µM [quencher, side channel, partial curve] | –
12 | O=[N+]([O-])c1cnc2nc(-c3ccncc3)nn2c1O | inconclusive: 25.1 µM [quencher, side channel, single point] | –
13 | CCOn1c(=O)c(-c2ccc(Cl)cc2)[n+]([O-])c2ccccc21 | inconclusive: 2.51 µM [quencher, side channel, partial curve, poor fit] | –
14 | CC(C)c1nc2ccc(NC(=O)C3CCCCC3)cc2[nH]1 | inconclusive: 39.8 µM [quencher, side channel, single point] | –
15 | CC1CCCN(C2=C(NS(=O)(=O)c3ccc(Br)cc3)C(=O)c3ccccc3C2=O)C1 (stereo not given) | inconclusive: 3.55 µM [quencher, side channel, partial curve, poor fit] | –
16 | CCC(C)n1c(=S)[nH]c2c(sc3ccc([N+](=O)[O-])cc32)c1=O (stereo not given) | inconclusive: 2.51 µM [quencher, side channel, partial curve] | –
17 | COc1ccc(OC)c(S(=O)(=O)Nc2ccc(Oc3ccccc3)cc2)c1 | – | inactive: 3.6%
18 | CCOc1ccc(-n2c(N)c(C(=O)NCc3cccnc3)sc2=S)cc1 | inconclusive: 3.98 µM [quencher, full curve, poor fit] | –
19 | Cc1ccc(C2C3=C(CCCC3=O)Nc3[nH]c(=S)[nH]c(=O)c32)cc1 (stereo not given) | – | inactive: 7.8%
20 | Cc1cc(C)c(C(=O)OCC(=O)NCc2cccs2)c(C)c1 | – | inactive: -0.809%
21 | COc1ccc(C(C#N)(CCC#N)CCC#N)cc1OC | inconclusive: 39.8 µM [quencher, side channel, single point] | –
22 | O=C(Cc1ccc(S(=O)(=O)N2CCOCC2)s1)Nc1ccc(N2CCOCC2)cc1 | inconclusive: 14.1 µM [quencher, side channel, partial curve] | –

Row | Structure (SMILES) | Potency | activity change, negative = inhibition
23 | CSc1ccc(C2N=C(c3ccccc3)NO2)cc1 (stereo not given) | – | inactive: 18.3%
24 | Cc1ccc(N2CCN(C(=S)c3ccc(-c4ccccc4[N+](=O)[O-])o3)CC2)cc1 | – | inactive: -7.78%
25 | O=C(COC(=O)c1cc(S(=O)(=O)N2CCCCC2)ccc1N1CCOCC1)NCCc1ccc(F)cc1 | – | inactive: -5.06%
26 | N#Cc1ccc(Sc2ccccn2)c([N+](=O)[O-])c1 | inconclusive: 12.6 µM [quencher, side channel, partial curve] | –
27 | Cc1ccc(N=Nc2c(O)ccc3n[nH]nc23)cc1 | inconclusive: 6.31 µM [quencher, side channel, partial curve] | –
28 | CC(C)NC(=O)CN1CCN(C(=O)CCl)CC1 | – | inactive: -9.8%
29 | Cc1cc(OCCCCn2ccnc2)cc(C)c1Cl | – | inactive: 6.53%
30 | CCN(CC)C(=O)C1CCCN(c2ccc([N+](=O)[O-])cc2)C1 (stereo not given) | inconclusive: 14.1 µM [quencher, side channel, partial curve] | –
31 | O=C1c2ccncc2C(=O)N1CNc1ccc(Cl)cc1 | inconclusive: 25.1 µM [quencher, side channel, partial curve] | –
32 | Cc1cc(C)cc(N(CC(=O)NCc2ccco2)C(=O)c2snc(C(N)=O)c2N)c1 | inconclusive: 22.4 µM [quencher, side channel, single point] | –
33 | Oc1[nH]c2ccccc2c1C=Nc1ccc2c(c1)OCO2 | inconclusive: 10 µM [quencher, side channel, partial curve] | –
34 | CC(=O)Nc1ccc(Nc2nnc(-c3ccc(C)c(S(N)(=O)=O)c3)c3ccccc23)cc1 | – | inactive: 16.3%
35 | N#C/C(=C\c1c[nH]c2ccccc12)C(=O)NC1CC1 | inconclusive: 39.8 µM [quencher, side channel, partial curve] | –
36 | CC(=O)Nc1ccc(NS(=O)(=O)c2cc([N+](=O)[O-])ccc2C)cc1 | inconclusive: 11.2 µM [quencher, side channel, partial curve] | –
37 | O=C(CSc1nc(-c2ccc(F)cc2)nc2c1Cc1ccccc1O2)Nc1ccc(C(=O)O)cc1 | – | inactive: 3.18%
38 | Fc1ccc(N2CCN(/C=C/c3nnnn3-c3ccccc3)CC2)cc1 | inconclusive: 5.62 µM [quencher, side channel, single point] | –
39 | O=C1CSC(c2cccc([N+](=O)[O-])c2)N1c1ccc(O)cc1 (stereo not given) | inconclusive: 31.6 µM [quencher, single point] | –
40 | O=C(O)CC(NC(=O)C(c1ccccc1)c1ccccc1)c1cccc([N+](=O)[O-])c1 (stereo not given) | inconclusive: 35.5 µM [quencher, side channel, single point] | –
41 | CCOc1cccc(NC(=O)/C(C#N)=C/c2cccnc2)c1 | – | inactive: -4%
42 | O=C1c2ccccc2C(=O)c2c1oc(C(F)(F)F)c2C(=O)c1ccccc1 | inconclusive: 3.16 µM [quencher, side channel, partial curve] | –
43 | CC(C)OC(=O)CSc1nnc(-c2cnccn2)n1C | active: 39.8 µM | –
44 | CCOC(=O)c1nn(-c2ccccc2)c(=O)c2c(N)scc12 | inconclusive: 15.8 µM [quencher, side channel, partial curve] | –

Row | Structure (SMILES) | Potency | activity change, negative = inhibition
45 | O=C(CN1C(=O)c2cccc3cccc1c23)NCc1ccncc1 | inconclusive: 15.8 µM [quencher, side channel, partial curve] | –
46 | O=C(Nc1ccc(F)c(F)c1)c1ccccc1-c1ccccc1 | – | inactive: -11.5%
47 | CC(=O)Nc1ccc(OC(=O)c2cc3ccccc3oc2=O)cc1 | inconclusive: 17.8 µM [quencher, side channel, partial curve] | –
48 | Cn1nnc(NC(=S)NC(=O)c2ccc(-c3ccc(Br)cc3)o2)n1 | – | inactive: 11.7%
49 | COc1ccc(C2=Nn3c(nnc3-c3ccccc3)SC2)cc1OC | – | inactive: 6.81%
50 | COc1ccc(Cn2nnnc2C(c2cccs2)N2CCCCCC2)cc1 (stereo not given) | inconclusive: 28.2 µM [quencher, side channel, single point] | –
51 | COc1ccc(C(CCNCc2ccc(N(C)C)cc2)c2ccccc2)cc1 (stereo not given) | – | inactive: -3.19%
52 | O=C(Nc1ccc2nc(-c3cccnc3)[nH]c2c1)c1ccccc1F | inconclusive: 35.5 µM [fluorescent, side channel, single point] | –
53 | O=C(C1CCN(S(=O)(=O)c2cccc3cccnc23)CC1)N1CCN(c2ccc(Cl)cc2)CC1 | – | inactive: 1.52%
54 | O=C(O)CN1C(=O)c2ccc(C(=O)c3ccccc3)cc2C1=O | inconclusive: 8.91 µM [quencher, side channel, partial curve] | –
55 | COC(=O)Cc1c(C)nc2nc(NCc3cccc([N+](=O)[O-])c3)[nH]n2c1=O | inconclusive: 25.1 µM [quencher, single point] | –
56 | N#C/C(=C\c1ccc[nH]1)C(=O)c1ccccc1 | inconclusive: 11.2 µM [quencher, side channel, partial curve] | –
57 | Cc1cccc(NC(=O)CCNS(=O)(=O)c2cccc3nsnc23)c1C | inconclusive: 12.6 µM [quencher, side channel, partial curve] | –
58 | CC(C)Cc1cc(C(=O)N2CCN(c3ccc(F)cc3)CC2)no1 | inconclusive: 28.2 µM [quencher, side channel, single point] | –
59 | O=C(NCc1cccs1)c1ccc([N+](=O)[O-])cc1 | – | inconclusive: 138% [activator]
60 | CC(=O)NC1C(=O)N(CCN2CCOCC2)c2ccc(Cl)cc21 (stereo not given) | inconclusive: 39.8 µM [inhibitor, single point] | –
61 | O=C(NCCN1CCN(c2ccccc2)CC1)C1CCN(S(=O)(=O)c2cccs2)CC1 | – | inactive: -21.6%
62 | CC1=N/C(=C\c2ccc(OC(C)C)cc2)C(=O)N1c1ccc(C(=O)O)cc1 | inconclusive: 14.1 µM [quencher, side channel, partial curve, poor fit] | –
63 | CN1CCN(C(=O)CSc2nnc(COc3ccc(Cl)cc3)o2)CC1 | – | inactive: -2.6%
64 | O=C(Nc1ccccc1[N+](=O)[O-])c1cncc(Br)c1 | inconclusive: 15.8 µM [quencher, side channel, partial curve] | –
65 | CC(=O)c1cc(NC(=O)c2ccc([N+](=O)[O-])cc2)c(=O)oc1C | inconclusive: 14.1 µM [quencher, partial curve] | –

Reference: PubChem BioAssay AID2675 (National Center for Advancing Translational Sciences (NCATS), 2010)
